PubChem BioAssay AID493208 (National Center for Advancing Translational Sciences (NCATS), 2011)
In all, about 44,000 compounds went through this assay and about 340 (0.77%) were called active. Inconclusive results (about 5%) are left out. The call rests on the fitted dose curve; in most records, active means well fitted inhibition curve with a large enough effect; inconclusive means small, poorly fitted or top-dose-only effect; inactive means flat fitted curve, though single readings scatter. The list shows a part of the results.

Test: Acumen qHTS Assay for Inhibitors of the mTORC1 Signaling Pathway in MEF (Tsc2-/-, p53-/-) Cells: Sytravon; further: nearly all actives have a fitted effect of over 50% in size;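 on activity change, negative = inhibition: plate controls were DMSO for no effect and rapamycin for full effect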
Settings: phospho-rpS6 immunofluorescence/PI, 24 h; series mostly up to 38.3 µM; activity change, negative = inhibition: at the top concentration
Summary of the method: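 Immunofluorescence of rpS6 phosphorylation in Tsc2-/-, p53-/- MEFs after 24 h compound exposure, normalized to propidium iodide signal. Activity is expressed as % positive cells, thresholded with 7.5 nM rapamycin.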
Potency means the concentration at half of the fitted maximal effect.

| Compound | activity change, negative = inhibition | Potency |
| --- | --- | --- |
| Cc1nc2ccn(Cc3cccnc3)c(=O)c2cc1C(=O)N1CCN(c2ccc(F)cc2)CC1 | inactive: -7.49% | – |
| COC(=O)c1ccccc1NC(=O)c1cnc2c(-c3cccc(C)c3)c(C)nn2c1C | inactive: -4.05% | – |
| CCc1ccc(C(=O)c2cn(Cc3ccc(F)cc3)c3cc(OC)c(OC)cc3c2=O)cc1 | inactive: -8.12% | – |
| COc1ccc(CCNC(=O)C(C)n2c(=O)cc(C(F)(F)F)c3c(C)nn(C)c32)cc1OC (configuration not stated) | inactive: -8.55% | – |
| Cc1cc(C)cc(Oc2nc3c(C)cccn3c(=O)c2/C=C(\C#N)c2nc3ccccc3s2)c1 | inactive: -29.7% | – |
| COc1ccc(N2CCN(Cc3nnc(-c4cccc(Br)c4)o3)CC2)cc1 | inactive: 0.066% | – |
| CCS(=O)(=O)N1CC(=O)N(c2ccc(Cl)cc2)C(C)(C(=O)NC2CCCCCC2)C1 (configuration not stated) | inactive: -4.48% | – |
| COc1ccc(CCn2c3c(c(=O)[nH]c2=O)C(NC(=O)c2ccc(C(C)(C)C)cc2)(C(F)(F)F)C(=O)N3)cc1OC (configuration not stated) | inactive: -18.9% | – |
| COc1ccccc1Cc1nc2ccccc2nc1SCC(=O)N1CCN(c2ccccc2)CC1 | inactive: 0% | – |
| Cc1ccc(C(C)C)c(OCCSc2nc3ccccc3n2CC(O)CO)c1 (configuration not stated) | inactive: -0.207% | – |
| CC(=O)c1cc(-c2ccc(F)cc2)n(CC(=O)Nc2cc(C)cc(C)c2)c1C | inactive: 0.851% | – |
| COc1cccc(NC(=O)/C(C#N)=C/c2c(C)n(Cc3ccc(Cl)cc3)c3ccccc23)c1 | inactive: 1.38% | – |
| CC(C)Cn1c(-c2ccc(S(=O)(=O)N3CCOCC3)cc2)csc1=Nc1cc(Cl)ccc1Cl | inactive: 5.56% | – |
| O=C(NCc1ccco1)c1ccc2c(c1)N(Cc1ccc(Cl)cc1)C(=O)c1ccccc1S2 | inactive: 6.04% | – |
| CCOc1ccc(Nc2nc3c(S(=O)(=O)c4ccc(C(C)C)cc4)nnn3c3ccsc23)cc1 | inactive: -0.755% | – |
| Cc1cc2nc(-c3ccc(NC(=O)c4cc5ccccc5o4)cc3)oc2cc1C | inactive: -0.28% | – |
| Cc1sc2ncn(CC(=O)Nc3ccc(C(C)C)cc3)c(=O)c2c1S(=O)(=O)N1CCN(c2ncccn2)CC1 | inactive: -18.2% | – |
| CC1(C)N=C(SCc2ccccc2Cl)c2ccccc2N1 | inactive: -2.66% | – |
| Cc1ccc(S(=O)(=O)c2nnn3c2nc(NC(C)C)c2cc(Cl)ccc23)cc1C | inactive: 0.0473% | – |
| Cc1cccc(-c2noc(-c3cccnc3NCc3ccc(Cl)cc3)n2)c1 | inactive: 2.77% | – |
| COc1ccc2c(c1)sc1ncc(C(=O)NCc3ccccc3F)c(=O)n12 | inactive: 0.782% | – |
| Cc1ccccc1C(=O)N1CC(=O)Nc2ccc(Cl)cc2C1c1ccccc1 (configuration not stated) | inactive: 5.57% | – |
| O=C(c1cccc(Cl)c1)N1c2nc(-c3ccco3)nn2C2(CCCCC2)[C@@H]2CCCC[C@@H]21 | inactive: 0.52% | – |

| Compound | activity change, negative = inhibition | Potency |
| --- | --- | --- |
| CCOc1ccc(NS(=O)(=O)c2ccc(C(=O)N(C)C)s2)cc1 | inactive: 14.3% | – |
| C#CCn1c(=NC(=O)c2ccc3c(c2)OCCO3)sc2cc(OC)c(OC)cc21 | inactive: 14.2% | – |
| COc1ccc(CCNC(=O)CCCCn2c(=O)c3ccccc3n(CC(=O)Nc3c(C)cccc3C)c2=O)cc1OC | inactive: -6.43% | – |
| CCOC(=O)c1c(C)[nH]c(C)c1S(=O)(=O)NCC(=O)Nc1cccc(C#N)c1 | inactive: 6.87% | – |
| COc1ccc(S(=O)(=O)N2CCC(C(=O)Nc3ccccc3)CC2)cc1OC | inactive: -9.26% | – |
| COc1cc(OC)cc(N2C(=O)N(Cc3ccc(C(C)(C)C)cc3)c3ccccc3S2(=O)=O)c1 | inactive: -5.65% | – |
| Cc1nn(-c2ccc(N3CCCCC3)nn2)c(C)c1CCC(=O)Nc1ccc(F)cc1F | inactive: 0% | – |
| Cc1nc2ccc(S(=O)(=O)CCC(=O)Nc3ccc(Cl)cc3)cc2s1 | inactive: -18.3% | – |
| COc1cccc(NC(=O)CC(=O)Nc2ccc3nc4n(c(=O)c3c2)CCCCC4)c1 | inactive: -0.657% | – |
| COC(=O)c1scc(-c2ccc(C)cc2)c1S(=O)(=O)N1CCN(c2ccccc2)CC1 | inactive: -14.4% | – |
| Nc1c(C(=O)Nc2ccccc2Cl)c2ccccn2c1C(=O)c1ccccc1 | inactive: -6.71% | – |
| CCOc1ccc(NC(=O)c2c(NCc3cccc(OC)c3OC)sc3c2CCC3)cc1 | inactive: -6.88% | – |
| CCc1ccc(NC(=O)CN(c2ccc(Cl)cc2)S(=O)(=O)c2ccsc2C(=O)OC)cc1 | inactive: -7.55% | – |
| O=C(C1CCCN(S(=O)(=O)c2cccc3nsnc23)C1)N1CCN(c2ccccc2)CC1 (configuration not stated) | inactive: 3.43% | – |
| COc1ccc(OC)c(CNC(=O)c2ccc3c(c2)c(C)c(C)n3Cc2ccc(Cl)cc2)c1 | inactive: -6.6% | – |
| CCOC(=O)N1CCN(C(=O)CN(c2ccccc2F)S(=O)(=O)c2ccc(C)cc2)CC1 | inactive: 2.44% | – |
| Cc1cc(N2CCC(C)CC2)nc2ccc(NC(=O)Cc3c(F)cccc3Cl)cc12 | inactive: 0% | – |
| Cc1ccc(Cn2cc(S(=O)(=O)c3cccc(Cl)c3)c(=O)c3cc(F)c(N4CCCCC4)cc32)cc1 | inactive: -5.03% | – |
| Cc1cc(C)cc(NC(=O)CSc2nc(=O)n(CCN3CCOCC3)c3c2CCC3)c1 | inactive: -0.601% | – |
| COC(=O)c1c(NC(=O)Cc2coc3cc(C)ccc23)sc2c1CCC2 | inactive: -0.848% | – |
| Cc1ccc(Cl)cc1NC(=O)CSc1nccn1C | inactive: -0.692% | – |
| O=C(NCc1cccs1)c1ccc2c(c1)N(Cc1cccc(F)c1)C(=O)c1ccccc1S2 | inactive: 3.83% | – |
| CCOC(=O)c1noc2nc(C)n(CC(=O)NC(C)CC)c(=O)c12 (configuration not stated) | inactive: 4.43% | – |

| Compound | activity change, negative = inhibition | Potency |
| --- | --- | --- |
| CC(=O)c1cccc(NC(=O)CSc2nc(=O)n(Cc3ccco3)c3c2CCC3)c1 | inactive: -0.255% | – |
| CCOc1ccccc1CNC(=O)c1ccc2c(c1)N(Cc1ccc(C)cc1)CCS2 | inactive: 3.04% | – |
| CCCCN(CC)C(=O)c1nn(C)c2c1CSc1ccccc1-2 | inactive: -81.8% | – |
| Cc1oc(-c2cccc(Cl)c2)nc1CS(=O)(=O)CC(=O)NC(C)CCc1ccccc1 (configuration not stated) | inactive: -2.09% | – |
| O=C(NCCc1ccccc1Cl)C1CCN(c2nc3ccccc3nc2C(F)(F)F)CC1 | inactive: 0% | – |
| COc1ccc(-n2c(-c3ccco3)nc3c(cnn3-c3ccc(Cl)cc3)c2=O)cc1 | inactive: 1.77% | – |
| CC1(C)O[C@H]2[C@@H](O1)[C@@H](C(=O)Nc1ccccc1C(F)(F)F)O[C@@H]1OC(C)(C)O[C@@H]12 | inactive: -0.385% | – |
| O=C(CSc1ccc(-c2cccs2)nn1)Nc1ccccc1C(F)(F)F | inactive: -8.47% | – |
| Cc1ccc(NC(=O)C2CCCN(C(=O)c3cnn(-c4ccc(F)cc4)c3-n3cccc3)C2)c(Cl)c1 (configuration not stated) | inactive: -0.849% | – |
| Cc1ccccc1CNC(=O)C(C)N(c1ccccc1)S(C)(=O)=O (configuration not stated) | inactive: -3.97% | – |
| O=C(CCC1N=C2c3ccccc3N=C(SCc3ccc(F)cc3)N2C1=O)NCCc1ccccc1 (configuration not stated) | inactive: 0.317% | – |
| COc1ccc(Cl)cc1NC(=O)C(C)Sc1nc2c(c(=O)[nH]1)CCCC2 (configuration not stated) | inactive: 6.95% | – |
| CCOC(=O)c1cc(S(=O)(=O)Nc2cc(F)ccc2C)[nH]n1 | inactive: -3.53% | – |
| CCCc1nn2c(=O)cc(COC(=O)c3ccccc3NC(=O)COc3ccccc3)nc2s1 | inactive: 0% | – |
| COc1ccc(-c2cc(C(F)(F)F)n3nc(-c4ccccc4)cc3n2)cc1OC | inactive: -6.57% | – |
| CCc1ccc(NC(=O)Cn2c(=O)n(CCC(C)C)c(=O)c3cccnc32)cc1 | inactive: -15.8% | – |
| CC(=O)Nc1nonc1-c1nnc(SCc2ccccc2F)n1C | inactive: -2.3% | – |
| CCc1ccccc1NS(=O)(=O)c1ccc2c(c1)CC(=O)N2 | inactive: -6.44% | – |
| Cc1ccc(/C=C/c2onc(C)c2S(=O)(=O)N2CCC(C(=O)Nc3ccccc3C(F)(F)F)CC2)cc1 | inactive: -0.0481% | – |
| CC(=O)c1ccc(N2CCN(c3ncnc4c3c(-c3ccccc3)cn4-c3ccc(Cl)cc3)CC2)cc1 | inactive: 15.8% | – |
| CCCCSc1nnc2n(-c3ccc(OC)cc3)c(=O)c3c4c(sc3n12)COC(C(C)C)C4 (configuration not stated) | inactive: -0.0267% | – |
| COc1cccc(CNC(=O)Cn2nc(-c3ccc(Cl)cc3)ccc2=O)c1 | inactive: -15.4% | – |
| CC(=O)c1ccc(NC(=O)c2cc(C)nc3c2c(C)nn3-c2ccc(C)cc2)cc1 | inactive: -0.72% | – |

| Compound | activity change, negative = inhibition | Potency |
| --- | --- | --- |
| COc1ccc(-n2c(=O)c3c(c4cc(OC)ccc4n3C)n(Cc3cccc(C)c3)c2=O)cc1 | inactive: -1.67% | – |
| COc1ccc2c(c1)c(=O)c(S(=O)(=O)c1ccccc1)cn2CC(=O)Nc1ccc(C)c(Cl)c1 | inactive: 0.453% | – |
| COc1ccc(-n2cc(C(=O)NCCc3cc(OC)ccc3OC)c3ccccc3c2=O)cc1 | inactive: 10.7% | – |
| CCC(C(=O)Nc1cccc(-c2nc3cccnc3s2)c1C)c1ccccc1 (configuration not stated) | inactive: -9.82% | – |
| CCOC(=O)c1c(C)[nH]c(C)c1S(=O)(=O)N1CCCC(C(=O)NCc2ccc(N(C)C)cc2)C1 (configuration not stated) | inactive: 6.11% | – |
| CC(C)CC(=O)Nc1nnc(S(=O)(=O)N(C)Cc2ccc(Cl)cc2)s1 | inactive: -0.253% | – |
| CNC(=O)CSc1cn(CC(=O)N2CCCCCC2)c2ccccc12 | inactive: 0.316% | – |
| CC1=C(C(=O)Nc2ccc(C)cc2C)C(c2cccs2)n2nc(SCc3cccc(C)c3)nc2N1 (configuration not stated) | inactive: 1.31% | – |
| COc1ccc(OC)c(NC(=O)CN2C(=O)CC(C)Sc3ccccc32)c1 (configuration not stated) | inactive: -5.98% | – |
| O=C(CCOc1ccccc1)N(Cc1cccnc1)c1nc2ccc(Cl)cc2s1 | inactive: -0.351% | – |
| CCOc1ccc(NC(=O)CSc2oc(-c3ccc(F)cc3)nc2S(=O)(=O)c2ccc(C)cc2)cc1 | – | active: 2930 nM |
| Cc1ccc(CN(Cc2ccco2)C(=O)c2oc3cc(Br)ccc3c2C)cc1 | inactive: -3.34% | – |
| Clc1ccccc1-c1nnc(COc2ccccc2)o1 | inactive: -0.397% | – |
| Cc1nc2nc(NC(=O)c3ccc(C(C)(C)C)cc3)[nH]n2c(=O)c1Cc1ccccc1 | inactive: 1.44% | – |
| Cc1ccc(-n2c(=O)c3c4c(sc3n(Cc3cc(=O)n5ccccc5n3)c2=O)CCC4)cc1C | inactive: -5.31% | – |
| COc1ccc(CNC(=O)Cn2ccc3cc(S(=O)(=O)N4CCCCC4)ccc32)cc1OC | inactive: -12.1% | – |
| O=C1N(Cc2ccccc2Cl)c2ccccc2C1(O)c1c[nH]c2ccccc12 (configuration not stated) | inactive: 3.11% | – |
| COc1cc(CN2CCN(S(=O)(=O)c3ccc(NC(C)=O)cc3)CC2)cc(OC)c1OC | inactive: -10.5% | – |
| CCn1cc(C(=O)NCCc2ccc(OC)c(OC)c2)c(=O)c2cc(S(=O)(=O)N3CCCCCC3)ccc21 | inactive: 0.646% | – |
| CCOC(=O)c1sc2ccccc2c1S(=O)(=O)Nc1ccc(C(C)=O)cc1 | inactive: 0.827% | – |
| CC(=O)c1ccc(NS(=O)(=O)c2c(C)nc3scc(C)n3c2=O)cc1 | inactive: -19.5% | – |
| Cc1cccc(Cn2c(=O)n(Cc3ccccc3)c(=O)c3c2c2cc(C)ccc2n3C)c1 | inactive: -0.947% | – |
| CCOC(=O)c1cc(C)n(CC2CCC(C(=O)Nc3ccccc3OC)CC2)c1C (configuration not stated) | inactive: -13.2% | – |
